From PubChem BioAssay AID686971 (National Center for Advancing Translational Sciences (NCATS), 2013)
The campaign covered roughly 360,000 compounds. About 7,500 (2.1%) were called active. Inconclusive means that the source gave no clear call. Such entries were picked first, then a sample of the others. Calls come from the whole dose curve; as a rule, active = well fitted cell-killing curve with a large enough effect; inconclusive = small, poorly fitted or top-dose-only effect, or effect the other way, or another doubt; inactive = no such curve, though single readings can be large or run the other way. No potency is given beside an inconclusive call; the fits are too rough.

Experiment: qHTS for induction of synthetic lethality in tumor cells producing 2HG: qHTS for the HT-1080-IDH1KD cell line;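 for activity, negative = toxicity: 0% = DMSO wells and -100% = cell-free medium wells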
Conditions: HT-1080 IDH1 knockdown viability, ATP luminescence, 48 h; activity, negative = toxicity: at 46.1 µM (top of the series) unless noted
In short: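 Assay cells: HT-1080 with IDH1 knockdown, 750 per well, RPMI/5% FBS. Exposure: 48 h at 37 °C following 2 h pre-incubation. Read: CellTiter-Glo luminescence; fitted concentration-response, curve class assigned.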
Potency is the fitted concentration of half-maximal effect; tags give direction and shape of the fitted curve.

SMILES	Potency	activity, negative = toxicity
O=C(c1cc(-n2cnnc2)ccc1Cl)N1CCN(c2nc(-c3ccccc3)cs2)CC1	inconclusive [cytotoxic, single point]	–
Cc1ccc(Nc2nc(N)nc(-c3oc4ccccc4c3C)n2)cc1	active: 0.0103 µM	–
Cn1cnnc1SCc1ccc(C(=O)NN)cc1	inactive	–
C=CC[C@H](CC(=O)N[C@H](CO)Cc1ccccc1)C(=O)N[C@@H](COC(=O)[C@@H](CC=C)CC(=O)OC(C)(C)C)Cc1c[nH]c2ccccc12	inconclusive [cytotoxic, single point]	–
Cc1cccc(N2CCN(C(=O)c3ccc4c(c3)c(C)c(C)n4C)CC2C)c1 (centres undefined)	inconclusive [cytotoxic, single point]	–
Cc1ccc(NC(=O)c2cc(S(=O)(=O)N3CCCC3)c[nH]2)c(C)c1	inactive	–
COc1ccc(OC)c(-c2cc(C(=O)NC3CCCC3)c3ccccc3n2)c1	inactive	–
CCOc1ccc(S(=O)(=O)Nc2ccc(F)cc2)c(C)c1C	active: 10 µM	–
COc1cccc(/C=N/NC(=O)CC2C(=O)NN=C2C)c1O (centres undefined)	inconclusive [rising, single point]	–
Cc1ccc(CN2C(=O)c3ccccc3Sc3ccc(C(=O)NCCCN4CCOCC4)cc32)cc1	inconclusive [cytotoxic, single point]	–
CC(C)(C)C(=O)NCCCc1nc2ccccc2n1CCCOc1ccc(Cl)cc1	inconclusive [cytotoxic, partial curve]	–
Cc1cccc(NC(=S)NC(=O)c2cc(-c3ccccc3)nc3ccccc23)c1	inactive	–
C(=C\c1ccccc1)/CN1CCN(C(CCc2ccccc2)c2nnnn2-c2ccc3c(c2)OCCO3)CC1 (centres undefined)	inconclusive [cytotoxic, partial curve, poor fit]	–
Nc1ncc(Br)cc1Br	inconclusive [rising, single point]	–
C(=N\n1cnnc1)/c1cn(-c2cccs2)nc1-c1ccccc1	–	inactive: -6.44% [at 9.24 µM]
COC(=O)N1c2ccccc2C=Cc2ccccc21	inconclusive [cytotoxic, partial curve]	–
COc1ccc(CNc2c(CO)cnc3c2cnn3C)cc1	inconclusive [cytotoxic, single point]	–
O[C@H]1CN(CC2CCCCC2)[C@@H](c2ccc(Cl)cc2)C[C@@H]1n1cc(C2CC2)nn1	inconclusive [cytotoxic, single point]	–
COC1CCCCC1Nc1cc(C)cc(C)c1 (centres undefined)	inconclusive [rising, full curve, poor fit]	–
